Measured values reported in the RNAGym collection of RNA variant scans (doi:10.1073/pnas.2313332121).
Variants at the floor of the assay are shown more often than the library holds them.

B1: TPR 5TU (parent)
chain: GGAUCUUCUCGAUCUAACAAAAAAGACAAAUCUGCCACAAAGCUUGAGAGCAUCUUCGGAUGCAGAGGCGGCAGCCUUCGGUGGCGCGAUAGCGCCAACGUUCUCAACUAUGACACGCAAAACGCGUGCUCCGUUGAAUGGAGUUUAUCAUG

Variants of: B1
Assay: polymerase ribozyme fitness, log enrichment relative to wild type (log ratio); higher = more active; in vitro selection for triplet polymerase activity
Method in brief: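 To select mutant libraries of each subunit of a heterodimeric triplet polymerase ribozyme, built by PCR and transcribed, each was annealed with a biotinylated primer, partner subunit and triplets, then incubated frozen at −7 °C. Extended constructs were gel-excised, captured on streptavidin beads and amplified by RT-PCR, in one round carried out in triplicate. Illumina sequencing of input and output libraries kept genotypes with ≥10 input reads and ≥1 read per output. Fitness is the base-2 logarithm of genotype enrichment relative to wild-type enrichment, from inverse-variance-weighted replicate averages.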

Polymerase ribozyme fitness (log ratio), ≤ -4.2:
GGAUCUUCUCGAUCUAACAAAAAAGACAAAUCUGCCACAAUGCUUGAGAGCAUCUUCGAAUGCAGAGGCGGCAGCCUUCGGUGGCCCGAUAGCGCUAACGUUCUCAACUAUGGCACGCAAAACGCGUGCUCCGUUGAAUGGAGUUUAUCAUG [A41U G59A G86C C96U A113G]
GGAUCUUCUCGAUCUAACAAAAAAGACAAAUCUGCCACAAUGCUUGAGAGCAUCGUCGGAUGCAGAGGCGGCAGCCUUCGGGGGCGCGAUAGCGCUACCGUUCUCAACUAUGACACGCAAAACGCGUGCUCCGUUGAUUGGAGUUUAUCAUG [A41U U55G U82G C96U A98C A138U]
GGAUCUUCUCGAUCUAACAAAAAAGACAAAUCUGCCACAAAACUUGAGUGCAUCUUCGGGUGCAGAGGCGGCAGCCUUCGGUGGCGCGAUAGCGCCAACGUUCUCAACUAUGACACGCAAAACCCGUGCUCCGUUGAAUGGAGUUUAUCAUG [G42A A49U A60G G124C]
GGAUCUUCUCGAUCUAACAAAAAAGACAAAUCUGCCACAAUGCCUGAGAGCAUCUUCGAAUGCAGAGGCGGCAGCCUUCGGUGGCGCGAUAGCGCCAACGUUCUCAACUAUGACACGCAAAACGCGUGCUCCGUUGAAUGGAGUCUAUCAUG [A41U U44C G59A U145C]
GGAUCUUCUCGAUCUAACAAAAAAGACAAAUCUGCCACAAAACUUGAGAGCCUCUUCGGAUGCAGAGGCGGCAGCCUUCGGUGGCGCGAUAGCGCCAACGUUCUCAACUAUGACACGCAAAACGCGUGCUGCGUUGAAUGGAGUUUAUCAUG [G42A A52C C131G]
GGAUCUUCUCGAUCUAACAAAAAAGACAAAUCUGCCACAAAAGUUGAGAGCAUCUUCGGAUGCAGAGGCGGCAGCCUUCGGUGACGCGAUAGCGCCAACGUUCACAACUAUGACACGCAAAACGCGUGCUCCGUUGAAUGGAGGUUAUCAUG [G42A C43G G84A U104A U144G]
GGAUCUUCUCGAUCUAACAAAAAAGACAAAUCUGCCACAAAACUUGAGAGCAUCUUCGGAUGCAGAGGCGGCAGCCUUCGGUGGCGCGUUAGUCCCAACGUUCUCAACUAUGACACGCAAAACGCGUGCUCCGUUGAAUGGAGUUUAUCAUG [G42A A89U C93U G94C]
GGAUCUUCUCGAUCUAACAAAAAAGACAAAUCUGCCACAAAACUUGAGAGGAUCUUCGGAUGCAGAGGCGGCAGCGUUCGGUGGCGCGAUAGUGCCAACGUUCGCAACUAUGACACGUAAAACGCGUGCUCCGUUGAAUGGAGUUUAUCAUG [G42A C51G C76G C93U U104G C118U]
GGAUCUUCUCGAUCUAACAAAAAAGACAAAUCUGCCACAAAACUUGAGAGCAUCUUCGGUUGCAGAGGCGGCAGCCUUCGGUGGCGCGAUAGCGUCAACGUUCUCAACUAUGACACGCAAAACGCGUGCUCCGUUGAAUGGAGCUUAUCAUG [G42A A60U C95U U144C]
GGAUCUUCUCGAUCUAACAAAAAAGACAAAUCUGCCACAAAACUUGAGAGUAUCUUCGGAUGCAGAGGCGGCAGCCUUCCGUGGCGCGAUAGCGCCAACGUUGUCCACUAUGACACGCAAAACGUGUGCUCAGUUGAAUGGAGUUUAUCAUG [G42A C51U G80C C103G A106C C125U C132A]
GGAUCUUCUCGAUCUAACAAAAAAGACAAAUCUGCCACAAAACUUGAGUGCAUCUUCGGAUGCAGAGGCGGCUGCCUUCGGUGGCGCGAUCGCGCCAACGUUCUCAACUAUGACACGCAAAACCCGUGCUCCGUUUAAUGGAGUUUAACGUG [G42A A49U A73U A91C G124C G136U U148A A150G]
GGAUCUUCUCGAUCUAACAAAAAAGACAAAUCUGCCACAAAACUUGAGAGCAUCUUCGGCUGCAGAGGCGGCAGCCUUCGGUGGAGCGAUAGCGCCAACGUUCUCAACUAUGAUACGCAAAACGCGUGCUCCGUUGAAUGGAGUUUAUCAUG [G42A A60C C85A C114U]
GGAUCUUCUCGAUCUAACAAAAAAGACAAAUCUGCCACAAAACUUGUGAGUAUCUUCGGUUGCAGAGGCGGCAGCCUUCGGUUGCGCGAUAGCGCCAAGGUUCUCAACUAUGACACGCAAAACGCGUGCUACGUUGAAUGGAGUUGAUCAUG [G42A A47U C51U A60U G83U C99G C131A U146G]
GGAUCUUCUCGAUCUAACAAAAAAGACAAAUCUGCCACAAAACUUGAGAGCAUGUUCGGAUGCAGAGGCGGCAGCCUUCGGUGGCGCGAUAGCGUCAACGUUCUCAACUAUGACACGCAAAACGCGUGCUCCGUUGAAUGGAGUUUAUCAUG [G42A C54G C95U]
GGAUCUUCUCGAUCUAACAAAAAAGACAAAUCUGCCACAAAACUUGAGAGCAUCUUCGGAUGCAGCGGCGGCAGCCUUCGGUGGCGCGAUAGCGUCAACGUUCUCAACUAUGACACGCAAAACGCUUGCUCCGUUGAAUGGAGUUUAUCAUG [G42A A66C C95U G126U]
GGAUCUUCUCGAUCUAACAAAAAAGACAAAUCUGCCACAAAACUUGCGAGCAUCUUCGGAUGCAGAGGCGGCAGCCUUCGGUGGCGCGAUAGCGCUAACGUUCUGAACUAUGACACGCAAAACGCGUGCUCCGUUGAAUAGAGUUUAUGAUG [G42A A47C C96U C105G G140A C149G]
GGAUCUUCUCGAUCUAACAAAAAAGACAAAUCUGCCACAAAACUUGAGCGCAUUUUCGGAUGCAGAGGCGGCAGCCUUCGGUGGCGCGAUAGCGCCAACGUUCUCCACUAUGAGACGCAAAACGCGUGCUCCGUUGAAUGCAGUUUAUCAUG [G42A A49C C54U A106C C114G G141C]
GGAUCUUCUCGAUCUAACAAAAAAGACAAAUCUGCCACAAUGCUUGAGAGCAUCUUCGCAUGCAGAGGCGGCAGCAUUCGGUGGGGCGAUAGCGCCAACGUUAUCAACUAUGACACGCAAAACGCGUGCUCCGUUGAAUGGAGUUUAUCAUG [A41U G59C C76A C85G C103A]
GGAUCUUCUCGAUCUAACAAAAAAGACAAAUCUGCCACAAAACUUGAGUGCCUCUUCGGAUGCAGAGGCGGCAGCCUUCGGAGGCGCGAUAGCGCCAACGUUCUCGACUAUGACACGCAAAACGCGUGCUCCGUUGAAUGGAGUUUAUCAUG [G42A A49U A52C U82A A106G]
